Experimental data from paper PMC3217859.
These are yes or no findings as the source states them, for the method shown. Binding seen in cells or lysates may run through a third protein. Some binding calls cover weakened binding; strength is not graded here. Where a sequence is shown, tags or fusion partners need not be part of it.

T1: HA-tagged R88S/K89E striatin (human) (UniProt O43815)
T1 sequence: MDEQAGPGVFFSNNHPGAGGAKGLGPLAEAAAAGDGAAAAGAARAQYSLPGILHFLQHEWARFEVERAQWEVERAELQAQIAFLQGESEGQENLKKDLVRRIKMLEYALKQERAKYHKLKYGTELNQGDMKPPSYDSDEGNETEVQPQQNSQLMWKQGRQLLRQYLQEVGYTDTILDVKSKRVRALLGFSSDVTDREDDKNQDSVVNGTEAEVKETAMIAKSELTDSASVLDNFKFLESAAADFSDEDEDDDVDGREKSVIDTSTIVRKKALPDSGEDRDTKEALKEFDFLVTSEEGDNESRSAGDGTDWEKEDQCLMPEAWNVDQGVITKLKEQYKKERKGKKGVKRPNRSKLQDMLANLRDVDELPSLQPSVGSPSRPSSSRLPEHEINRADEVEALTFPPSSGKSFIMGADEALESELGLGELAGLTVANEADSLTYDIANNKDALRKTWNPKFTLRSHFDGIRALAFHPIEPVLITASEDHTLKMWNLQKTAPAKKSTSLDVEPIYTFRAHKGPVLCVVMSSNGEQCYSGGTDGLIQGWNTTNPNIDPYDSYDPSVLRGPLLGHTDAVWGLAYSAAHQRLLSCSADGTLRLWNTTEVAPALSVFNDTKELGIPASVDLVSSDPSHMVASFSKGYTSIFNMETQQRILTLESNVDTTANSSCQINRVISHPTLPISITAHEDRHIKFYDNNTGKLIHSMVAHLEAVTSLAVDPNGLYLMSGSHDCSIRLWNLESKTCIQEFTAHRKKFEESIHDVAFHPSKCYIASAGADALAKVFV

T2: HA-tagged wild-type striatin (human) (UniProt O43815)
T2 sequence: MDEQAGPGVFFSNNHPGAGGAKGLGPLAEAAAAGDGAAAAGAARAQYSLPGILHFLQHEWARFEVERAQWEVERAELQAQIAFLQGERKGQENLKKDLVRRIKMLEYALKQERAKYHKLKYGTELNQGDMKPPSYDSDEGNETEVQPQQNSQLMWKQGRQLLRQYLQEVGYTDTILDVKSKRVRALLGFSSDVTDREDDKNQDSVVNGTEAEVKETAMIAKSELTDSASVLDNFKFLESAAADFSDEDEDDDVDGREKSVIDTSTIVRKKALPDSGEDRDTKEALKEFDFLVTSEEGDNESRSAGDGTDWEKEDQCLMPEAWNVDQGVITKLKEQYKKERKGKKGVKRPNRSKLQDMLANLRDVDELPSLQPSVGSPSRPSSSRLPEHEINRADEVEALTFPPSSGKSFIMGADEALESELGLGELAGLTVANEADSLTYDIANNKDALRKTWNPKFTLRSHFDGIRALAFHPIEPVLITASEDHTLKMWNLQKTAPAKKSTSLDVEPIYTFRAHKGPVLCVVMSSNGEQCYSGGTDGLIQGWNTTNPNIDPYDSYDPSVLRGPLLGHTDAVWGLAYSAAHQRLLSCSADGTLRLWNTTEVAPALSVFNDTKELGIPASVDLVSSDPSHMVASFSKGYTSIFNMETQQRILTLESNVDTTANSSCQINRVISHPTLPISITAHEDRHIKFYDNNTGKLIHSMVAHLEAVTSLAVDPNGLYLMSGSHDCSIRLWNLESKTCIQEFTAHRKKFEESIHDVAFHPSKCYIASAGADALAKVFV

T3: HA-tagged L84A/L94A/I102A striatin (human) (UniProt O43815)
T3 sequence: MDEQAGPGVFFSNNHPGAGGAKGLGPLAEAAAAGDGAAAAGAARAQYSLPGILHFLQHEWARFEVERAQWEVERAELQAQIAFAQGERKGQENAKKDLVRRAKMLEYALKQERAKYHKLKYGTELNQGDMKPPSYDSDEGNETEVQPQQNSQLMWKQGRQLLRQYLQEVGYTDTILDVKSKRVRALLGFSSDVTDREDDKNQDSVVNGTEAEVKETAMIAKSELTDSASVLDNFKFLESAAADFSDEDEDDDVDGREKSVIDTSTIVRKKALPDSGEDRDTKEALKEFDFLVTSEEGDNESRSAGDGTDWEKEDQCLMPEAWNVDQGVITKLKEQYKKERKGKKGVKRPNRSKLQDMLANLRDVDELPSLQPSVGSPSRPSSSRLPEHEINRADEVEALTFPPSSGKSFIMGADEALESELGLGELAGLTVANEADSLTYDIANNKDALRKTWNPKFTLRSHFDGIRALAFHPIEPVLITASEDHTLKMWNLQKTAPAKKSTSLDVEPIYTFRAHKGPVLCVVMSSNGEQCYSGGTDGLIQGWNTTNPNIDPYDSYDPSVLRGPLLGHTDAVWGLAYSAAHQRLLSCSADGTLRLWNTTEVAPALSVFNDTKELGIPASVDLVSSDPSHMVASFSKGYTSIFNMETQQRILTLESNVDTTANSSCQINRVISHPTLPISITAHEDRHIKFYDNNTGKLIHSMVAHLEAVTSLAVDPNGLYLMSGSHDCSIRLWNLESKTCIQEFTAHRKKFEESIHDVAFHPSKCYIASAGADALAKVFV


Columns and labels:
Assay in all cases: co-IP; anti-HA immunoprecipitates (12CA5 with protein A-Sepharose, or F7 anti-HA-agarose when probing for Mst3 or Mst4; 1.5 h, 4°C) of lysates (1% Nonidet P-40, 0.135 M NaCl, 10% glycerol, 20 mM Tris pH 8.0) of HEK293 cells transfected with HA-striatins; endogenous partners by immunoblot, partner/HA-striatin ratio by chemilumimager against wild type; 50 mM NaF and 100 nM okadaic acid in the lysis buffer in the phosphorylation experiments
[1] = target: T1, HA-tagged R88S/K89E striatin (human)
[2] = target: T2, HA-tagged wild-type striatin (human)
[3] = target: T3, HA-tagged L84A/L94A/I102A striatin (human)

Row | binding [1] | binding [2] | binding [3] | Binder
1 | binds | binds | binds | S/G2 nuclear autoantigen (SG2NA) (protein, UniProt Q13033 1-797) MDELAGGGGGGPGMAAPPRQQQGPGGNLGLSPGGNGAAGGGGPPASEGAGPAAGPELSRPQQYTIPGILHYIQHEWARFEMERAHWEVERAELQARIAFLQGERKGQENLKKDLVRRIKMLEYALKQERAKYHKLKYGTELNQGDLKMPTFESEETKDTEAPTAPQNSQLTWKQGRQLLRQYLQEVGYTDTILDVRSQRVRSLLGLSNSEPNGSVETKNLEQILNGGESPKQKGQEIKRSSGDVLETFNFLENADDSDEDEENDMIEGIPEGKDKHRMNKHKIGNEGLAADLTDDPDTEEALKEFDFLVTAEDGEGAGEARSSGDGTEWDKDDLSPTAEVWDVDQGLISKLKEQYKKERKGKKGVKRANRTKLYDMIADLGDDELPHIPSGIINQSRSASTRMTDHEGARAEEAEPITFPSGGGKSFIMGSDDVLLSVLGLGDLADLTVTNDADYSYDLPANKDAFRKTWNPKYTLRSHFDGVRALAFHPVEPVLVTASEDHTLKLWNLQKTVPAKKSASLDVEPIYTFRAHIGPVLSLAISSNGEQCFSGGIDATIQWWNMPSPSVDPYDTYEPNVLAGTLVGHTDAVWGLAYSGIKNQLLSCSADGTVRLWNPQEKLPCICTYNGDKKHGIPTSVDFIGCDPAHMVTSFNTGSAVIYDLETSQSLVILSSQVDSGLQSNNHINRVVSHPTLPVTITAHEDRHIKFFDNKTGKMIHSMVAHLDAVTSLAVDPNGIYLMSGSHDCSIRLWNLDSKTCVQEITAHRKKLDESIYDVAFHSSKAYIASAGADALAKVFV
2 | binds | binds | binds | Mob3/phocein (protein, UniProt Q9Y3A3 1-225) MVMAEGTAVLRRNRPGTKAQDFYNWPDESFDEMDSTLAVQQYIQQNIRADCSNIDKILEPPEGQDEGVWKYEHLRQFCLELNGLAVKLQSECHPDTCTQMTATEQWIFLCAAHKTPKECPAIDYTRHTLDGAACLLNSNKYFPSRVSIKESSVAKLGSVCRRIYRIFSHAYFHHRQIFDEYENETFLCHRFTKFVMKYNLMSKDNLIVPILEEEVQNSVSGESEA
